Reference: the supplement of paper PMC10126150
Values marked as one replicate rest on one cluster of the flow cell; about a third of the high ones do not repeat.

The sequences below were run on ATP (assay: switch fluorescence ratio, 500 uM ATP over buffer (Cy3 cluster intensity, sum of 5 cycles each) (fold (ratio)); higher = stronger signal-on switching upon ATP binding; sequences stand for … in TCGTCGGCAGCGTCAGATGTGTATAAGAGACAGTTTTTTTTTTTTTTTTTTTTTTTTT…TC). Conditions: aptamer strand: ATP DNA aptamer (quencher-CACCTGGGGGAGTATTGCGGAGGAAGG + anchor), 100 nM annealed; ATP concentration: 500 uM; one replicate.
Outline: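 Values give the fluorescence ratio for each switch-domain sequence, averaged from per-cluster ratios of summed target-cycle to summed buffer-cycle Cy3 intensity. The Cy3-labelled switching-strand clusters sat on a modified Illumina MiSeq flow-cell, were annealed to 100 nM quencher-labelled ATP aptamer, and were imaged in selection buffer, then after 15 min with 500 uM ATP at 22 °C. Five cycles ran with NaOH stripping and re-annealing between them, and clusters outside 100-1000 RFU were excluded.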
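Further: ATP exposure 15 min at 22 °C before imaging.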

| Sequence | switch fluorescence ratio |
| --- | --- |
| CTCGCCGGAG | 1.01 |
| AGTGCGTCAA | 1.04 |
| TAGAACGCGG | 0.985 |
| TGTTTACTGG | 1.03 |
| GGGACCTAG | 0.963 |
| TTACTCTTC | 1.02 |
| TGAATTTCAC | 0.966 |
| CGCGCGCGAG | 0.984 |
| GGTAAAACGC | 1.01 |
| AGACATTGCT | 1.04 |
| TGGTGGGCCA | 1.01 |
| TTGAATATCC | 0.995 |
| AACAGAATCA | 0.984 |
| ACACGGTCTT | 1.01 |
| GACTCATTA | 1.04 |
| TAGTATTCCA | 0.972 |
| GTTCTGGCGC | 1.02 |
| ATTGCAGGAG | 0.99 |
| ATTGTTGACC | 0.997 |
| TATGGGCGGT | 0.997 |
| CGTAGCAGCA | 2.37 |
| AAACATCCCA | 1.03 |
| GAGGTCCGGG | 0.969 |

| Sequence | switch fluorescence ratio |
| --- | --- |
| GTTTATGTCG | 0.998 |
| ATTGAATGGG | 1.02 |
| TACAATCGGG | 0.993 |
| GTGCGCATGC | 1.12 |
| TCGTGGTAAA | 1.03 |
| TCCGGGATCT | 1.64 |
| AGATTAGAGG | 0.995 |
| TTACACGGTA | 1.12 |
| TTACAATGCG | 1 |
| TTCGTAGGCT | 0.99 |
| GAACTAATGG | 0.998 |
| GCGTCATCTA | 0.999 |
| CTGCCGACTT | 1.01 |
| ACCAATCTCC | 2.23 |
| TGTTGTGTAC | 1.03 |
| TGGTTATCGA | 1.03 |
| ATAAGGGCC | 0.988 |
| CACTTTATCT | 0.991 |
| TGCCATGTCA | 0.998 |
| TTCGTCTTGC | 1.02 |
| ATCGGTAGAA | 1.01 |
| ACGGGCACCA | 1.02 |
| GTAGGAGACT | 0.958 |

| Sequence | switch fluorescence ratio |
| --- | --- |
| CCACGAACGG | 1.47 |
| GCGTGCGACC | 1.16 |
| TACCGCGGCA | 0.988 |
| ATTCTCTTTT | 0.969 |
| CGCATCCATA | 1.11 |
| GAAATTCGCT | 1.02 |
| GATTTCGTAC | 1.03 |
| TATGAGCCAC | 1.06 |
| TGAGGGACGT | 0.994 |
| CCGTGATGAA | 1.14 |
| ACTTCTCGGG | 1.06 |
| CTGGCAGCGC | 1.02 |
| CCACATCAAT | 1.45 |
| CATAGGTGG | 0.984 |
| TTTTTTAACC | 1.02 |
| CAATTCAGTA | 0.992 |
| TGTGTTTTTC | 1.04 |
| AAGAAGCATG | 0.989 |
| TGATTAACAA | 1.05 |
| AGCGGCGCGT | 1.04 |
| CTAGTAATTC | 1.27 |
| CGCCAACGCT | 1.09 |
| TAAACAGCGG | 1.02 |

| Sequence | switch fluorescence ratio |
| --- | --- |
| TTAATTAGGG | 0.969 |
| AAGAAGGAGT | 0.984 |
| TTTCCAAGTT | 1.04 |
| CAACATAACT | 1.08 |
| CTGGCGTGCA | 1.58 |
| AAGATTGCCA | 0.984 |
| GGTTACAGTG | 0.969 |
| ACCGACCGCC | 3.25 |
| TATGTATATT | 0.991 |
| TAATTATCG | 0.992 |
| GCGTAAAGTA | 1 |
| ACTCGAGCAT | 1.41 |
| ACGACTTTTA | 1.01 |
| CCCCAAGGCG | 3.11 |
| ACACTAGGGA | 0.99 |
| TACGGGCGAG | 1 |
| ACCTAACTGT | 1.14 |
| ACGCAGAGCC | 1.13 |
| TGGATGTTCG | 0.947 |
| GTAACGTATC | 1.13 |
| GCCCGTAGTC | 1.05 |
| CCATTGATTT | 1 |
| GGCCGGTCGT | 0.979 |

| Sequence | switch fluorescence ratio |
| --- | --- |
| GAAACAGG | 1.05 |
| GGACAATTAG | 1.04 |
| AAGTTAACGC | 1.03 |
| CCGTTCACGC | 1.28 |
| CCCGGGGGAG | 1.01 |
| GAGGGCGCGT | 0.993 |
| AGTCAGAAGG | 0.982 |
| GACTTTCTAT | 1 |
| ATAAGCTGCT | 1.02 |
| AGAAGATCAA | 0.967 |
| CGTCGCCTTT | 1 |
| AAGAACGACT | 0.971 |
| TCTGCGAGA | 1.74 |
| GAGAGTACAC | 0.991 |
| GAGCCCCACG | 1.04 |
| TTATGGAGGG | 0.989 |
| TTGCTCAGTG | 1.08 |
| AGTATCAGGC | 0.958 |
| ATCTTATGTA | 0.992 |
| GTGTATTGTG | 0.982 |
| GACATTCTGT | 0.998 |
| TTCATCAGTC | 1.02 |
| GCTTAAGAAT | 0.917 |

| Sequence | switch fluorescence ratio |
| --- | --- |
| GGAGCTGAAA | 1.03 |
| AGGCGGTCTC | 1.03 |
| CTTTGGCGTG | 1.03 |
| ATGAAAGCAA | 1.84 |
| TCTTGCTTGT | 1.02 |
| TATCAGGCT | 1.03 |
| AAATCACCGT | 1.05 |
| CGCAGGCTGC | 1.02 |
| CCTCGTGGGC | 1.54 |
| TCTGATAGAA | 1.02 |
| GGGCTCTATA | 1.06 |
| TTCAATACT | 3.27 |
| CGACGAGTTA | 1.09 |
| AGTACTAGAA | 1.03 |
| AATATTTAGC | 1.01 |
| GTCTGTAAGG | 1.01 |
| CGACTAGACC | 1.08 |
| GATGTAGGTC | 0.985 |
| GTAGGGAACT | 0.978 |
| ACAAATTATC | 1.02 |
| GCAGTGTCAG | 1.01 |
| GAAGAAATTT | 1.01 |
| GGGTCAGAC | 1 |

| Sequence | switch fluorescence ratio |
| --- | --- |
| TGGCTAGTGT | 0.943 |
| GCCCACTACT | 1.07 |
| TGAAGACCTT | 1.12 |
| GATGGTGGGC | 0.992 |
| GGATGCGAAG | 0.974 |
| CCTATGTGAA | 1.11 |
| AGTCTAGTCC | 1.04 |
| TAAGCCGGTT | 0.963 |
| CGTAGCCAAC | 2.45 |
| ACTCAGACGT | 1.05 |
| TTGATGGTTA | 0.989 |
| ATAATACGCT | 1.09 |
| ATTTTAAAAA | 0.99 |
| TTATGAACCT | 1.77 |
| TTCGCCACCG | 1.01 |
| CAGGGGAGG | 1.02 |
| TTGAGAAAG | 1.02 |
| AGGCAGATGT | 1.01 |
| GCTTATCAAC | 1.02 |
